# Assay results published in the supplement of paper PMC8728848.
# The list shows a part of the results.
# B1: SP16663B-bot-321-25-321 (Bacteroides ovatus) (protein)
# chain: DDDDEVTMNSKFYLSTKVFPVDSYEASLSVILKDNSVVVNELQPNYRFVACATERLSKDVKITADSDDNLVSAYNKANDTEYNILPAENYSFTNKTVTIENGESVSGDSIKIELLNVGSLTTEGGYLLPVTISSIEGNNLDALSSNRGVVYLKIQNIHVNVESGQPAEGTLIADRSGWTVKVAPTTRGDAKNLIDGTNSDVARDGGAEYWLTVDIGKVQTLTGIRNKCYASSYSPTAVEVFTSSDGAKWKSIGAVTISKSGTQYIKFSKAVETRYLKYYVKQGPNTVSLTEFDLYAK
# Tests used:
# Assay in all cases: glycan array binding signal (z-score within array); higher = stronger binding
# Conditions in all cases: glycan notation: IUPAC condensed, linker removed
# [1] = target: Gal(b1-4)GlcNAc(b1-6)GalNAc
# How it was run: (§1)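 The binding signal is a Z-score computed within each array. Data were drawn from 3228 arrays in the Consortium for Functional Glycomics database, restricted to those with a known protein sequence. Scores were averaged over arrays of the same protein sequence at different concentrations or buffers, and over linkers, and negative values can be taken as non-binding.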
# [2] = target: Gal(b1-4)GlcNAc(b1-6)[Gal(b1-3)]GalNAc
# How it was run: as §1
# [3] = target: Gal(b1-4)GlcNAc(b1-6)[Gal(b1-4)GlcNAc(b1-3)]GalNAc
# How it was run: as §1
# [4] = target: Gal(b1-4)GlcNAc6P
# How it was run: as §1
# [5] = target: Gal(b1-6)Gal
# How it was run: as §1
# [6] = target: Gal3S(b1-3)GalNAc
# How it was run: as §1
# [7] = target: Gal3S(b1-3)GlcNAc
# How it was run: as §1
# [8] = target: Gal3S(b1-3)[Fuc(a1-4)]GlcNAc
# How it was run: as §1
# [9] = target: Gal3S(b1-4)Glc
# How it was run: as §1
# [10] = target: Gal3S(b1-4)Glc6S
# How it was run: as §1
# [11] = target: Gal3S(b1-4)GlcNAc
# How it was run: as §1
# [12] = target: Gal3S(b1-4)[Fuc(a1-3)]Glc6S
# How it was run: as §1
# [13] = target: Gal3S(b1-4)[Fuc(a1-3)]GlcNAc
# How it was run: as §1
# [14] = target: Gal3S(b1-4)[Fuc(a1-3)]GlcNAc6S
# How it was run: as §1
# [15] = target: Gal3S4S(b1-4)GlcNAc
# How it was run: as §1
# [16] = target: Gal3S6S(b1-4)GlcNAc
# How it was run: as §1
# [17] = target: Gal3S6S(b1-4)GlcNAc6S
# How it was run: as §1
# [18] = target: Gal4S(b1-4)GlcNAc
# How it was run: as §1
# [19] = target: Gal4S6S(b1-4)GlcNAc
# How it was run: as §1
# [20] = target: Gal6P(b1-4)GlcNAc
# How it was run: as §1
# [21] = target: Gal6S(b1-3)GlcNAc
# How it was run: as §1
# [22] = target: Gal6S(b1-3)GlcNAc6S
# How it was run: as §1
# [23] = target: Gal6S(b1-4)Glc
# How it was run: as §1
# [24] = target: Gal6S(b1-4)Glc6S
# How it was run: as §1
# [25] = target: Gal6S(b1-4)GlcNAc
# How it was run: as §1
# [26] = target: Gal6S(b1-4)GlcNAc6S
# How it was run: as §1
# [27] = target: GalNAc(a1-3)Gal
# How it was run: as §1
# [28] = target: GalNAc(a1-3)GalNAc
# How it was run: as §1
# [29] = target: GalNAc(a1-3)GalNAc(b1-3)Gal(a1-4)Gal(b1-4)Glc
# How it was run: as §1
# [30] = target: GalNAc(a1-3)GalNAc(b1-3)Gal(a1-4)Gal(b1-4)GlcNAc
# How it was run: as §1
# [31] = target: GalNAc(b1-3)Gal
# How it was run: as §1
# [32] = target: GalNAc(b1-3)Gal(a1-4)Gal(b1-4)GlcNAc
# How it was run: as §1
# [33] = target: GalNAc(b1-3)Gal(a1-4)Gal(b1-4)GlcNAc(b1-3)Gal(b1-4)Glc
# How it was run: as §1
# [34] = target: GalNAc(b1-3)Gal(a1-6)Gal(b1-4)Glc
# How it was run: as §1
# [35] = target: GalNAc(b1-3)GalNAc
# How it was run: as §1
# [36] = target: GalNAc(b1-3)GlcNAc
# How it was run: as §1
# [37] = target: GalNAc(b1-4)Gal(b1-4)Glc
# How it was run: as §1
# [38] = target: GalNAc(b1-4)GlcNAc
# How it was run: as §1
binder,measurement,setting,value
B1,glycan array binding signal (z-score),[1],0.415
same,glycan array binding signal (z-score),[2],0.648
same,glycan array binding signal (z-score),[3],0.3
same,glycan array binding signal (z-score),[4],-0.283
same,glycan array binding signal (z-score),[5],-0.947
same,glycan array binding signal (z-score),[6],-0.196
same,glycan array binding signal (z-score),[7],-0.14
same,glycan array binding signal (z-score),[8],-0.262
same,glycan array binding signal (z-score),[9],-0.478
same,glycan array binding signal (z-score),[10],0.118
same,glycan array binding signal (z-score),[11],0.643
same,glycan array binding signal (z-score),[12],0.96
same,glycan array binding signal (z-score),[13],0.042
same,glycan array binding signal (z-score),[14],-0.022
same,glycan array binding signal (z-score),[15],-0.208
same,glycan array binding signal (z-score),[16],0.504
same,glycan array binding signal (z-score),[17],-0.063
same,glycan array binding signal (z-score),[18],0.866
same,glycan array binding signal (z-score),[19],-0.341
same,glycan array binding signal (z-score),[20],-0.471
same,glycan array binding signal (z-score),[21],0.005
same,glycan array binding signal (z-score),[22],0.289
same,glycan array binding signal (z-score),[23],-0.03
same,glycan array binding signal (z-score),[24],-0.107
same,glycan array binding signal (z-score),[25],0.309
same,glycan array binding signal (z-score),[26],-0.207
same,glycan array binding signal (z-score),[27],-0.597
same,glycan array binding signal (z-score),[28],-0.141
same,glycan array binding signal (z-score),[29],-0.638
same,glycan array binding signal (z-score),[30],-0.298
same,glycan array binding signal (z-score),[31],0.133
same,glycan array binding signal (z-score),[32],0.788
same,glycan array binding signal (z-score),[33],0.043
same,glycan array binding signal (z-score),[34],-0.361
same,glycan array binding signal (z-score),[35],-0.359
same,glycan array binding signal (z-score),[36],-0.426
same,glycan array binding signal (z-score),[37],0.089
same,glycan array binding signal (z-score),[38],1.29
